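These data come from cells grown in 96-well plates and exposed to compound for 48 hours at five concentrations. At the GI50, growth is halved. TGI denotes the concentration required for complete inhibition of growth.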
Test system: NCI-H322M lung
Assay: NCI-60 cell line screen, 48 h

Row | Compound | GI50 [µM] | TGI [µM]
1 | O=C(NO)c1ccc(-c2nc3ccc4[nH]ncc4c3c3c2CCCC3)cc1 | 0.133 | 3.33
2 | CC(C)C[C@H](NC(=O)CNC(=O)C[C@H]1O[C@@H]2OC3(C)CC[C@H]4[C@H](C)CC[C@@H]([C@H]1C)[C@@]24O3)B(O)O | 13.9 | 43.1
3 | CC(=O)Nc1ccc(-n2cnc3cc(-c4ccc(O)cc4)ccc32)cc1C(F)(F)F | 14.2 | 48.6
4 | N#Cc1cc(-c2ccc3ncnc(N4CCc5cc(F)c(Cl)cc54)c3c2)cnc1N | 2.33 | > 100
5 | COc1ccc2[nH]c(O)c(N=NC(=O)COc3ccc(NC(=O)Nc4ccc(Cl)c(Cl)c4)cc3)c2c1 | 2.42 | 11.5
